Consider 24 sequences from the supplement of paper PMC11417369.

Some of the results follow.

For this test, the system named is PF3D7_0420300 AP2 domain 1 (GST-tagged). Kind of test: gcPBM binding intensity (ln(normalized median fluorescence intensity)); higher = stronger DNA binding. An outline of the steps: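 Each value is the highest Masliner-normalised natural-log median intensity across replicate spots of either orientation of a probe. The probes were primer-extended double-stranded 36-bp intergenic genomic sequences on an Agilent 4 × 180k array, alongside negative controls, exposed for 1 h to GST-tagged P. falciparum DNA-binding domains expressed in E. coli. Bound protein was picked up with Alexa488 anti-GST antibody and scanned at 488 nm.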
“AAGAAAAAAAAAAAAAAAGATACTTTTTTAAAACTA [TGCATGCA_negctrl_site13]”: the “gcPBM binding intensity (ln)” value was 8.83.
For “ATATAAAGAAAAGGAACACACAAATATATATATATA [CACACA_site463]” the value was 9.57.
Consider “ATATATTATTTTAAATGTACTCATAATAGAAATGTC [XGTACX_site40]”, for which the “gcPBM binding intensity (ln)” value turned out to be 9.14.
For “CACACAGGTAAAAAGGTGCAGTTGAAATATTCCTCA [GTGCAC_site9730]” the value was 9.12; for “GTGCTTATTTATACATGTACAAATGATAAGTTTGTA [XGTACX_site169]”, 9.26.
For “TAAATATATTCATAAAGTACAAAGCAAAATTGTCTA [XGTACX_site7274]” the value was 9.23; for “GAAATAAATATATATGCATGTACTTTAATATTATTA [TGCATGCA_site904]”, 9.13; for “TTTTTTCTTTTATGTGAAATGTAATATTGTTATATA [GTGCAC_negctrl_site715]”, 9.11.
For “AGGTGATTGATATATACACACATACCTATATTTATA [CACACA_site7348]” the value was 9.62; for “TGTTTATTTAATAATATTTTTTTTTTTATTATATTA [XGTACX_negctrl_site56]”, 9.01.
Turning to “TTATTAAAATATTCTAGTACATATAAAAGGAGAACA [XGTACX_site4374]”, the “gcPBM binding intensity (ln)” value is 9.28.
For the sequence “AGCTCTCAAAATTATTCACACGTGTCCTGTTATATA [CACACA_site5415]”, the “gcPBM binding intensity (ln)” value was 9.73.
As for “ATATTTCATTAATGAACACACAAAGAGGTATATAAA [CACACA_site1519]”, the figure is 9.51; as for ATATTTAAAAATATAGTGCAATTATTCTAATGTGTT, 9.15; as for “AAATAAAAGGTTGAGAGTACATTTTTGTGTATGTAT [XGTACX_site5547]”, 9.41.
With “AAAAAAAAAATACAACAAAGTTAAATAAATAAATAA [GTGCAC_negctrl_site402]”, the “gcPBM binding intensity (ln)” value turned out to be 9.34.
Regarding “AAGAAAAAATATAATAATAATAAAATATATATAATA [TGCATGCA_negctrl_site475]”, the “gcPBM binding intensity (ln)” value turned out to be 9.29.
As for “TTTGTTTTTCATAGTGCACACATAACCAAAAATAGT [CACACA_site9030]”, the “gcPBM binding intensity (ln)” value turned out to be 9.29.
As for “TATTGTTTTGATTGATGTACATGTTTAAAATATATA [XGTACX_site8430]”, the figure is 9.28; as for “AAAGTAAATTTAAGCACACACAACGAACTTTTATAC [CACACA_site7008]”, 9.93.
“TAATCTATTTATATGTGTACCTATTTAGAAATGACA [XGTACX_site5709]”: the “gcPBM binding intensity (ln)” value is 9.03.
In the case of “TTTTTTATTGTGATACGTATATTATTTTTTGATAAA [CACACA_negctrl_site1]”, the “gcPBM binding intensity (ln)” value came out at 9.2.
For “TATATTTACATTGTAACACACATGAAATATATATAT [CACACA_site61]”, the “gcPBM binding intensity (ln)” value is 9.36.
For the sequence “TGTTGTAAATATGTTTGTACATAAATATATTATTTA [XGTACX_site5442]”, the “gcPBM binding intensity (ln)” value turned out to be 9.05.
